We go through three substances from publication PMC11348266.

Protein sequences, listed by entry. Tags and fused reporters are not part of them.
UniProt Q96CV9: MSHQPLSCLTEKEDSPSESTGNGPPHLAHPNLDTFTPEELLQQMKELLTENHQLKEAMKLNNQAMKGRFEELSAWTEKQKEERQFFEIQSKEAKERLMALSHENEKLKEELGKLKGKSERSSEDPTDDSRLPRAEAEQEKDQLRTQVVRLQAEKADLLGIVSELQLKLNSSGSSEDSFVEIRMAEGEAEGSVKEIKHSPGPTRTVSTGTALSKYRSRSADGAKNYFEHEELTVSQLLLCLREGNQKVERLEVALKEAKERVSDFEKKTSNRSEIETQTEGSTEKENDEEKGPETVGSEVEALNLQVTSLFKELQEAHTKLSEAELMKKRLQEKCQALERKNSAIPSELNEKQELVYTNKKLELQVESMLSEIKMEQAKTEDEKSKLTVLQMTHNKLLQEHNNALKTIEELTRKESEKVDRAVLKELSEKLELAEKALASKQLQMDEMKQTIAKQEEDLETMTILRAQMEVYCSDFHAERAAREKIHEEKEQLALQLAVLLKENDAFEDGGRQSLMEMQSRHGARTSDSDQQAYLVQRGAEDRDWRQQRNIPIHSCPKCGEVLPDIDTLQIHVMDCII
UniProt O60238: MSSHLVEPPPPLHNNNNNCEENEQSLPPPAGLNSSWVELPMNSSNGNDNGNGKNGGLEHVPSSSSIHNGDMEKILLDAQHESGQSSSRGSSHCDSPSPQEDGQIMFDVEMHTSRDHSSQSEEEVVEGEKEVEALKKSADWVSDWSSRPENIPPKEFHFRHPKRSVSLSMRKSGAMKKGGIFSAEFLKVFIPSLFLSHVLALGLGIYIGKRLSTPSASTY

No constants are given. Whether binding was seen depends on the method and setting. In cells and extracts the contact can be indirect. Some binding calls cover weakened binding; strength is not graded here. For part of these data: Sequences can lack the tags named with a protein.

Test in all cases: co-IP; HEK293T cells co-transfected with FLAG-/HA-/MYC-tagged plasmids; RIPA lysates incubated overnight with anti-FLAG or anti-MYC agarose beads, washed five times with RIPA buffer, immunoblot; cells treated with ME49 RNA (Figure 1G) or 3-MA 10 mM (Figures 3L, 4F) in some panels
(In general: In western blotting, separated proteins are transferred to a membrane and probed.)

In test [1] the target is T1, TBK1 S172A (UniProt Q9UHD2).
T1 sequence: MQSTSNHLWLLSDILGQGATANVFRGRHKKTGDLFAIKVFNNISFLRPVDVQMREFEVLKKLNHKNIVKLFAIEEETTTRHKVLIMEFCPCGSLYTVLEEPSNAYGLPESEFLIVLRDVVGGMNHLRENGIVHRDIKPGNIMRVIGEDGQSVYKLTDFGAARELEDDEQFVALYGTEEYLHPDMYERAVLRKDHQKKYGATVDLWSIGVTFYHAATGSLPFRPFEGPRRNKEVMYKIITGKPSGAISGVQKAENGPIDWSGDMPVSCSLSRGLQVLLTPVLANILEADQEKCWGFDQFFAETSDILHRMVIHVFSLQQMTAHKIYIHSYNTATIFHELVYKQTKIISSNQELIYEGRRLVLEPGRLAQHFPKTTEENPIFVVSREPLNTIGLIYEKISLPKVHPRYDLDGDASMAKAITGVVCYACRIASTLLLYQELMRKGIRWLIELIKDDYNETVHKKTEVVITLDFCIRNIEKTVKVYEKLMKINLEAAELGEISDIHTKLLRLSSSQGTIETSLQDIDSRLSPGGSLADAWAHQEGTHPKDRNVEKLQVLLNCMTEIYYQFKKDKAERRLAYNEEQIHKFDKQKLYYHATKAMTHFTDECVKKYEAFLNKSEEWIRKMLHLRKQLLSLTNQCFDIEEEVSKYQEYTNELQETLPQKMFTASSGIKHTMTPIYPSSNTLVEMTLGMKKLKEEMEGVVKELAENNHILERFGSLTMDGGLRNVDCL

Test [2] has as its target FLAG-OPTN (UniProt Q96CV9).
For test [3], the target named is FLAG-NIX (UniProt O60238).
Test [4] addresses FLAG-p62 (Sequestosome 1, SQSTM1) (UniProt Q13501).
Test [5] addresses T2, FLAG-NBR1 (UniProt Q14596).
T2 sequence: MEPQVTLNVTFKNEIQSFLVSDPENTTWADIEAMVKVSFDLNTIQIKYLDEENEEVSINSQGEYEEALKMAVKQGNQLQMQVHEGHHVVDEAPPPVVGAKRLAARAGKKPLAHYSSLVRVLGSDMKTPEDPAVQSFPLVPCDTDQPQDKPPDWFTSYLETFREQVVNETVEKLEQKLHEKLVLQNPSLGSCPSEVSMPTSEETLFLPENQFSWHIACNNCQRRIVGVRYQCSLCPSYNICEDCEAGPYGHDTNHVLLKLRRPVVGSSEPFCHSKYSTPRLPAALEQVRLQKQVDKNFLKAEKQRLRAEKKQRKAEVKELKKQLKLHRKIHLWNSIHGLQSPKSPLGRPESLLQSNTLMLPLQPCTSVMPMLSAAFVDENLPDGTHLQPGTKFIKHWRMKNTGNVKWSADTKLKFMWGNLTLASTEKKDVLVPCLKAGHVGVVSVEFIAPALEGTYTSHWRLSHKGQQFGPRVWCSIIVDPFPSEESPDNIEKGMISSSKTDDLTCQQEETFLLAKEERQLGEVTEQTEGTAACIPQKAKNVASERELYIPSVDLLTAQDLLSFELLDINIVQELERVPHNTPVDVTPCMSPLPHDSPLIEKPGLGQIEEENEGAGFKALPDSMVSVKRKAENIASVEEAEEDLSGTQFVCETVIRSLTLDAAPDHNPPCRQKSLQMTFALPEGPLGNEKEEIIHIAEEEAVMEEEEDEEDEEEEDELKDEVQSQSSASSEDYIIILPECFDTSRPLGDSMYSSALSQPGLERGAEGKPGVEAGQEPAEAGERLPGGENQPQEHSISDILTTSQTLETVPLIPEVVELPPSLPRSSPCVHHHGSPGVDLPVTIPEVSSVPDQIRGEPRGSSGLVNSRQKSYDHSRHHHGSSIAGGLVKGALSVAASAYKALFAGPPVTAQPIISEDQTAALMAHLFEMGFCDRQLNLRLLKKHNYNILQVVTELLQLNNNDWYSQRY

Test [6] concerns the target T3, FLAG-NDP52 (UniProt Q13137).
T3 sequence: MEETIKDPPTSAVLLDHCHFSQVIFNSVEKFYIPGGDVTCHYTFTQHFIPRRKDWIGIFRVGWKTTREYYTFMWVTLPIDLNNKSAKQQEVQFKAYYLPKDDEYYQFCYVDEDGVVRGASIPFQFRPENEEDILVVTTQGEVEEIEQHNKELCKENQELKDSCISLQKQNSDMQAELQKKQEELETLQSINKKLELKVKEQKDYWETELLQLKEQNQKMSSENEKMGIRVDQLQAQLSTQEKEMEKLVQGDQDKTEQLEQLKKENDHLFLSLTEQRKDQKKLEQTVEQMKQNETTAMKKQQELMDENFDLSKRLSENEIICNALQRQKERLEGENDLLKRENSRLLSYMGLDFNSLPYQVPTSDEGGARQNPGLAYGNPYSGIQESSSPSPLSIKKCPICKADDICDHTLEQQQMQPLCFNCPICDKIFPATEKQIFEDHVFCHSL

For test [7], the target named is FLAG-TBK1 Y329A mutant (UniProt Q9UHD2).
Test [8] concerns the target T4, FLAG-TRIM27 (Tripartite Motif protein 27) (UniProt P14373).
T4 sequence: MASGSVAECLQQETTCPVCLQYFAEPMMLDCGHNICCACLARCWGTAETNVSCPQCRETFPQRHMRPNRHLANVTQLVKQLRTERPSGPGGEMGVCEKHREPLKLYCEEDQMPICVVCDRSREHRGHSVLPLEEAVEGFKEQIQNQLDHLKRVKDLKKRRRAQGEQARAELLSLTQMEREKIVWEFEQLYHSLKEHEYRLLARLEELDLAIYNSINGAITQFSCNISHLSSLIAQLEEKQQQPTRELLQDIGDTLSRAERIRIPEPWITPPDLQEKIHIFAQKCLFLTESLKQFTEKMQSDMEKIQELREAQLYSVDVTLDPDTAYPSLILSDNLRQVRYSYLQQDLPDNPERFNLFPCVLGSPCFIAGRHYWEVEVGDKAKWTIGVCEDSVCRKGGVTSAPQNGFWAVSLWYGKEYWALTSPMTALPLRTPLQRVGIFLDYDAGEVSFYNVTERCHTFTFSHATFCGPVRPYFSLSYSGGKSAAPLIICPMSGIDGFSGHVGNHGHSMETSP

Consider “GRA4 (construct of Figures S3C and S4C, tag not shown) (from UniProt S8EUV6 1-345)”, for which the binding entry in test [1] was “binds weakly”.
With “HA-GRA4 (Toxoplasma gondii dense granule protein 4) (from UniProt S8EUV6 1-345)”, the binding entry is given as “binds” in test [2]; “binds” in test [3]; “binds” in test [4]; “binds” in test [5]; “no binding” in test [6].
Turning to “MYC-GRA4 (Toxoplasma gondii dense granule protein 4) (from UniProt S8EUV6 1-345)”, the binding result in test [7] is on record as “no binding”; in test [4], “binds”; in test [8], “binds”.
